This note sets out measurements from PubChem BioAssay AID504703 (Southern Research Specialized Biocontainment Screening …, 2011).

The source holds more than one record for some entries. They are shown here; other results are not. The source may hold further records. The values listed for one entry are repeats in other runs, samples, wells, individuals or studies. Marks in square brackets tell the records apart. Letters hold for one entry only.

As usually defined, the IC50 is the point on the concentration scale where inhibition reaches its midpoint. Low values mean inhibition by little substance, high ones a need for much substance.

This test deals with M. tuberculosis H37Rv growth inhibition with meropenem. As to the kind of experiment: H37Rv growth inhibition with and without meropenem, dose response, set 2 (AID 504703).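 Further: growth ran 7 days at 37 °C then overnight with Alamar Blue before reading.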 Conditions: measured here: IC50 without meropenem.

Turning to `COc1ccc2oc(C(=O)Nc3nc4ccccc4[nH]3)c(C)c2c1`, the IC50 is 460 nM [sample A] and 14.3 µM [sample B].
